Among all 370,000 compounds or so, about 150 (0.041%) were called active. Inconclusive means that the source gave no clear call. Such entries were picked first, then a sample of the others. The call rests on the fitted dose curve; in most records, active means well fitted inhibition curve with a large enough effect; inconclusive means small, poorly fitted or top-dose-only effect; inactive means flat fitted curve, though single readings scatter. Potencies of inconclusive entries are left out as doubtful fits.
target: Beta-lactamase (Escherichia coli (strain K12)) (UniProt P00811); assay: qHTS Inhibitors of AmpC Beta-Lactamase (assay with detergent); conditions: AmpC hydrolysis of nitrocefin, absorbance 480 nm, 0.01% Triton; series mostly up to 114 µM; further: nearly all actives have a fitted effect of over 25% in size
UniProt P00811, sequence (P00811 whole entry, looked up): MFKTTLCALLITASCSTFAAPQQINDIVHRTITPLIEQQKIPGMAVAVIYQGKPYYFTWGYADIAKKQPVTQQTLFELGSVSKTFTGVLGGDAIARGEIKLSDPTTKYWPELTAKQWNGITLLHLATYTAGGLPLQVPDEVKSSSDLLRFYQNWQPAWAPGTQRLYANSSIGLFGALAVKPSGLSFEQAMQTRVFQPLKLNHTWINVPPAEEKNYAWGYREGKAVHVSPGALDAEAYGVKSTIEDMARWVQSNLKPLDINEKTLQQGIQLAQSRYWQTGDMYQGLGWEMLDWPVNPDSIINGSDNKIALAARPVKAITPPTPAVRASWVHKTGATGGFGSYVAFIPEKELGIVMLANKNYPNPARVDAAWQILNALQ
How it was run: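 AmpC (5.3 nM in the dispensed reagent) in 20 mM phosphate pH 7.0 with 0.01% (detergent screen) or 0.0001% Triton X-100 was preincubated with compounds for 15 min at room temperature. Nitrocefin was then added from an 800 uM solution, and hydrolysis was followed at 480 nm.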
Potency means the concentration at half of the fitted maximal effect; tags describe the fitted curve by direction and shape.

**Q.** How did the Potency turn out when `COc1ccc(CC(=O)NCC(=O)N/N=C/c2c[nH]c3ccccc23)cc1` was run?
**A.** Its Potency is inconclusive [inhibitor, partial curve, poor fit].

**Q.** Which Potency does the source give for `COc1ccc(S(=O)(=O)N2CCOC23CCN(S(=O)(=O)c2cc(F)ccc2F)CC3)cc1` here?
**A.** Its Potency is inconclusive [inhibitor, partial curve, poor fit].

**Q.** `O=C(NNC(=O)c1ccccc1F)C1=NN(c2ccccc2)C(=O)CC1` was tested. Which Potency did it give?
**A.** Its Potency is inconclusive [inhibitor, full curve, poor fit].

**Q.** Which Potency does the source give for `Cc1c(C)[n+](=O)c(-c2ccc(F)cc2)c(C)n1[O-]` here?
**A.** Its Potency is inconclusive [inhibitor, full curve, poor fit].

**Q.** How did the Potency turn out when `CCN(CC(=O)Nc1c(F)cccc1F)C(=O)C1CCN(C(=O)Nc2ccccc2)CC1` was run?
**A.** The Potency was inconclusive [inhibitor, partial curve, poor fit].

**Q.** Which Potency does the source give for `Cn1ccnc1SCC(=O)Nc1ccccc1` here?
**A.** Its Potency is inconclusive [inhibitor, full curve].

**Q.** `C=CCN(c1ccc(C(=O)NCCCn2ccnc2)cc1)S(C)(=O)=O` was tested. Which Potency did it give?
**A.** The Potency was inconclusive [inhibitor, full curve, poor fit].

**Q.** `CC(=NCCc1c(C)[nH]c2ccc(OC(F)(F)F)cc12)C1=C(O)CC(c2ccccc2)CC1=O` (centres undefined) was tested. Which Potency did it give?
**A.** The Potency was “inactive”.

**Q.** How did the Potency turn out when `COC(=O)C1CC(=O)c2ccsc2C1` (centres undefined) was run?
**A.** The Potency was inconclusive [inhibitor, full curve, poor fit].

**Q.** How did the Potency turn out when `O=C(Nc1ccccc1C(=O)N1CCOCC1)C1CC(=O)N(C2CCCC2)C1` (centres undefined) was run?
**A.** Its Potency is inconclusive [inhibitor, partial curve, poor fit].

**Q.** Which Potency does the source give for `CC(C)CCOc1ccc(C(=O)NCC(c2ccco2)N(C)C)cc1` (centres undefined) here?
**A.** Its Potency is “inactive”.

**Q.** How did the Potency turn out when `COc1ccc(N(C)S(=O)(=O)c2cccc(C(=O)Nc3cc(OC)ccc3OC)c2)cc1` was run?
**A.** Its Potency is “inactive”.

**Q.** `CCOC(=O)CNC(=O)N1CCCC(CCC(=O)NCc2ccc(F)c(F)c2)C1` (centres undefined) was tested. Which Potency did it give?
**A.** Its Potency is “inactive”.

**Q.** For `Cc1ccc(C(=O)NCC(=O)N2CCCC(C(F)(F)F)C2)s1` (centres undefined), which Potency is on record?
**A.** Its Potency is inconclusive [inhibitor, full curve].

**Q.** For `COc1cc(OC)cc(C(=O)N2CCN(Cc3cccc(F)c3)CC2)c1`, which Potency is on record?
**A.** The Potency was inconclusive [inhibitor, full curve, poor fit].

**Q.** Which Potency does the source give for `Cc1onc(-c2c(F)cccc2Cl)c1C(N)=S` here?
**A.** The Potency was inconclusive [inhibitor, full curve, poor fit].

**Q.** For `CCOc1c2ccc(C(=O)NCC34CC5CC(CC(C5)C3)C4)cc2nn1CC`, which Potency is on record?
**A.** Its Potency is inconclusive [inhibitor, partial curve, poor fit].

**Q.** How did the Potency turn out when `COC(=O)C(C)n1cnc2c(nnn2-c2cccc(Cl)c2)c1=O` (centres undefined) was run?
**A.** The Potency was inconclusive [inhibitor, full curve, poor fit].

**Q.** Which Potency does the source give for `CCN1C(=O)c2cccc3c(S(=O)(=O)N4CCCC4C(=O)O)ccc1c23` (centres undefined) here?
**A.** Its Potency is “inactive”.

**Q.** With `CC(=O)N1CCOc2ccc(S(=O)(=O)N(C)c3ccc(C)cc3)cc21` as the compound, how does the Potency read?
**A.** The Potency was inconclusive [inhibitor, full curve, poor fit].

**Q.** For `COc1ccc(NCc2nnc(SCC#N)n2-c2ccccc2OC)cc1`, which Potency is on record?
**A.** The Potency was inconclusive [inhibitor, partial curve].

**Q.** For `Cc1cc(C(=O)NNC(=O)/C=C/c2ccco2)c(C)o1`, which Potency is on record?
**A.** Its Potency is inconclusive [inhibitor, partial curve, poor fit].

**Q.** Which Potency does the source give for `Cc1ccc(CS(=O)Cc2ccc(C(=O)NC3CCCCC3)o2)cc1` (centres undefined) here?
**A.** The Potency was inconclusive [inhibitor, partial curve].

**Q.** With `Cc1cc(NC(=O)CCC(=O)N(Cc2ccco2)C2(C(=O)NC3CCCC3)CCCCC2)no1` as the compound, how does the Potency read?
**A.** Its Potency is inconclusive [inhibitor, full curve, poor fit].

**Q.** Which Potency does the source give for `COc1ccc(N(CC(=O)Nc2cc(C(=O)O)ccc2C)S(=O)(=O)c2c(C)noc2C)cc1` here?
**A.** Its Potency is inconclusive [inhibitor, full curve, poor fit].

**Q.** Which Potency does the source give for `Cc1ccc(C(C)C)c(OCCNCc2ccccc2)c1` here?
**A.** The Potency was inconclusive [inhibitor, full curve, poor fit].

**Q.** How did the Potency turn out when `CCN1CCN(C(=O)c2cc3c(=O)n4ccccc4nc3n2Cc2ccccc2)CC1` was run?
**A.** The Potency was inconclusive [inhibitor, full curve, poor fit].

**Q.** How did the Potency turn out when `CCOC(=O)c1cc2sccc2n1CC(=O)N1CCN(C(=O)c2ccco2)CC1` was run?
**A.** The Potency was inconclusive [inhibitor, full curve, poor fit].

**Q.** With `CCC(C)NC(=O)CC1Oc2ccc(C)cc2NC1=O` (centres undefined) as the compound, how does the Potency read?
**A.** The Potency was inconclusive [inhibitor, partial curve].

**Q.** For `S=c1[nH]ccn1-c1cccc(Cl)c1`, which Potency is on record?
**A.** The Potency was inconclusive [inhibitor, full curve, poor fit].

**Q.** `CCOCCCNC(=O)COc1ccc(OC)cc1` was tested. Which Potency did it give?
**A.** The Potency was inconclusive [inhibitor, single point].

**Q.** `Cc1cc(C)c2nc(N3CCCC(C(=O)NC4CCCC4)C3)sc2c1` (centres undefined) was tested. Which Potency did it give?
**A.** The Potency was “inactive”.

**Q.** With `COc1ccc(N2CCN(C(=O)c3cc4c(s3)-c3ccccc3OC4)CC2)cc1` as the compound, how does the Potency read?
**A.** Its Potency is inconclusive [inhibitor, partial curve, poor fit].

**Q.** `Cc1cc(=O)oc2cc(OCCSCCN3CCCCC3)ccc12` was tested. Which Potency did it give?
**A.** The Potency was “inactive”.

**Q.** With `Cc1ccc(NC(=O)C(c2ccccc2)N2CCN(CC(=O)NC3CC3)CC2)cc1` (centres undefined) as the compound, how does the Potency read?
**A.** Its Potency is “inactive”.

**Q.** For `COc1cccc(C2CC(=O)N3CN(c4cccc(Cl)c4C)CSC3=C2C#N)c1OC` (centres undefined), which Potency is on record?
**A.** Its Potency is inconclusive [inhibitor, full curve, poor fit].

**Q.** Which Potency does the source give for `COc1c2c(nc3ccccc13)OC(C(C)(O)CO)C2` (centres undefined) here?
**A.** The Potency was inconclusive [inhibitor, partial curve].

**Q.** For `O=c1[nH]cnc2sc(-c3ccccc3)cc12`, which Potency is on record?
**A.** The Potency was “inactive”.

**Q.** How did the Potency turn out when `CC1(C)C(=O)Nc2ccccc2N1C(=O)CSc1nnc2c(Cl)cc(Cl)cn12` was run?
**A.** Its Potency is inconclusive [inhibitor, partial curve, poor fit].

**Q.** Which Potency does the source give for `O=C(/C=C/N1CCOCC1)c1ccc(-c2ccccc2)cc1` here?
**A.** Its Potency is inconclusive [inhibitor, full curve, poor fit].

**Q.** With `Cn1c(=O)c2c(ncn2CC(=O)N/N=C/C(Cl)=C/c2ccccc2)n(C)c1=O` as the compound, how does the Potency read?
**A.** Its Potency is “inactive”.

**Q.** With `CCCCS/C(N)=N/N=C/c1ccccc1O` as the compound, how does the Potency read?
**A.** The Potency was “inactive”.

**Q.** `CC(NC(=O)C(c1ccccc1)c1ccccc1)c1ccc(S(N)(=O)=O)cc1` (centres undefined) was tested. Which Potency did it give?
**A.** Its Potency is inconclusive [inhibitor, full curve, poor fit].

**Q.** For `COc1ccc(OC)c(S(=O)(=O)N2c3cc(F)ccc3CCC2C)c1` (centres undefined), which Potency is on record?
**A.** The Potency was “inactive”.

**Q.** `COc1cc2c(cc1OC)-c1c(OC)c(OC)cc3ccnc(c13)C2=O` was tested. Which Potency did it give?
**A.** Its Potency is “inactive”.

**Q.** `CN(C)c1ccc(-c2nc3ccccn3c2/N=C/c2ccc(Br)cc2)cc1` was tested. Which Potency did it give?
**A.** Its Potency is “inactive”.

**Q.** Which Potency does the source give for `CCc1ccccc1NC(=O)C(=O)NCC(c1cccnc1)N1CCN(c2ccccc2F)CC1` (centres undefined) here?
**A.** The Potency was “inactive”.

**Q.** How did the Potency turn out when `O=S(=O)(C(=CNc1ccccc1)S(=O)(=O)c1ccccc1)c1ccccc1` was run?
**A.** The Potency was inconclusive [inhibitor, partial curve, poor fit].

**Q.** `COc1ccccc1NC(=O)c1ccc(N)cc1` was tested. Which Potency did it give?
**A.** Its Potency is “inactive”.

**Q.** How did the Potency turn out when `C=C(C)c1cccc(C(C)(C)NC(=O)Nc2cccnc2)c1` was run?
**A.** Its Potency is inconclusive [inhibitor, partial curve, poor fit].

**Q.** `CCOc1ccccc1NC(=O)CSc1nc2cc(O)ccc2c(=O)n1-c1ccc(OC)c(OC)c1` was tested. Which Potency did it give?
**A.** The Potency was “inactive”.

**Q.** `CCCSc1nc2sc3c(c2c(=O)n1Cc1ccccc1)CC(C)(CC)OC3` (centres undefined) was tested. Which Potency did it give?
**A.** Its Potency is “inactive”.

**Q.** How did the Potency turn out when `Cc1csc2nc(CNC(=O)C3CC=CCC3C(=O)O)cn12` (centres undefined) was run?
**A.** Its Potency is inconclusive [inhibitor, full curve, poor fit].

**Q.** Which Potency does the source give for `CC(=O)Nc1nonc1-c1nc2ccccc2n1CCC#N` here?
**A.** The Potency was inconclusive [inhibitor, full curve].

**Q.** With `O=C(COC(=O)C1CCC(=O)N1)Nc1ccccc1Br` (centres undefined) as the compound, how does the Potency read?
**A.** The Potency was inconclusive [inhibitor, partial curve].

**Q.** How did the Potency turn out when `Cc1ccc(-c2nnc(-n3nc(C)cc3C)c3ccccc23)cc1` was run?
**A.** Its Potency is inconclusive [inhibitor, single point].

**Q.** How did the Potency turn out when `COc1ccccc1-n1c(CNC(=O)c2ccc(S(=O)(=O)N3CCCCC3)cc2)n[nH]c1=S` was run?
**A.** Its Potency is “inactive”.

**Q.** With `O=C(CN1CCN(S(=O)(=O)c2ccccc2)CC1)Nc1ccc([N+](=O)[O-])cc1` as the compound, how does the Potency read?
**A.** The Potency was inconclusive [inhibitor, full curve, poor fit].

**Q.** For `Brc1ccc(OCCCCN2CCCCC2)cc1`, which Potency is on record?
**A.** Its Potency is “inactive”.

**Q.** For `COc1cccc(OCc2nnc(SCC(=O)N3c4ccccc4Sc4ccc(Cl)cc43)o2)c1`, which Potency is on record?
**A.** The Potency was inconclusive [inhibitor, partial curve].

**Q.** With `CCn1nnnc1-c1ccc(OC)c(S(=O)(=O)N2CCCCC2)c1` as the compound, how does the Potency read?
**A.** Its Potency is inconclusive [inhibitor, partial curve].

**Q.** How did the Potency turn out when `Cc1ccccc1CSCC(=O)N/N=C/c1cccs1` was run?
**A.** Its Potency is inconclusive [inhibitor, partial curve, poor fit].

**Q.** `Cc1ccc(SC(=O)c2c([N+](=O)[O-])c(C)nn2C)cc1` was tested. Which Potency did it give?
**A.** Its Potency is “inactive”.

**Q.** With `Cc1ccccc1-c1nc(-c2cccnc2)no1` as the compound, how does the Potency read?
**A.** The Potency was “inactive”.

**Q.** `Cc1c(O)c2c(=O)n(-c3ccccc3)c(-c3ccccc3)cc2oc1=O` was tested. Which Potency did it give?
**A.** Its Potency is inconclusive [inhibitor, full curve, poor fit].

**Q.** `O=S(=O)(NC1=NCCCCC1)c1ccc(Cl)cc1Cl` was tested. Which Potency did it give?
**A.** Its Potency is inconclusive [inhibitor, full curve, poor fit].

**Q.** For `CC(=O)c1csc(-c2cccc(-c3nc4ccc(Cl)cn4c3NC3CCCCC3)c2)c1`, which Potency is on record?
**A.** The Potency was “inactive”.

**Q.** How did the Potency turn out when `OCCN(CCO)c1ccc2ccccc2c1` was run?
**A.** The Potency was inconclusive [inhibitor, partial curve].

**Q.** With `O=C1CCCC2=C1C1c3ccccc3C(=O)N1c1ccc(C(=O)c3ccccc3)cc1N2` (centres undefined) as the compound, how does the Potency read?
**A.** Its Potency is inconclusive [inhibitor, full curve, poor fit].
